Results taken from patent US8415399B2, “Retrovirus-infection inhibitor” (Nagasaki University, priority 2006, dated 2013).

System: VSV-G protein (VSV vector)
Format: cell-based, vesicular stomatitis virus (VSV)

## CC(C)=CCC/C(C)=C/CC/C(C)=C/C=C/C(C)=C/C(=O)O [NIK-333]
  infection with VSV-G protein: suppressed
